Experimental data published in patent EP4218932A2.

Target: L1 (DV1-GV4) (human)
Assay: DELFIA affinity ranking, signal with 100 nM biotinylated L1

Chain of L1 (DV1-GV4) (human) (chain, as listed by the source, chain 1 of 2): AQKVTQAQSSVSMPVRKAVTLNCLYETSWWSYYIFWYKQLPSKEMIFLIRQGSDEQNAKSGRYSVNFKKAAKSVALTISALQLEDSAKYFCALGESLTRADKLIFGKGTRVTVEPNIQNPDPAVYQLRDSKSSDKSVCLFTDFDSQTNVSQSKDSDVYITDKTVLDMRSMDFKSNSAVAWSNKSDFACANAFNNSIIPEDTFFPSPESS
Chain of L1 (DV1-GV4) (human) (chain, as listed by the source, chain 2 of 2): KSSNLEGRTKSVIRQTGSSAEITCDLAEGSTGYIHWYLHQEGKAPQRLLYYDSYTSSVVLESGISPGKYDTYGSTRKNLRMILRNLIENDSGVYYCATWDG

100 nM L1: 22500
B1: 1245_P01_G06 scFv (scFv)
scFv: QVQLVESGGGLVKPGGSLRLSCAASGFTFSDYYMSWIRQAPGKGLEWVSYISSSGSTIYYADSVKGRFTISRDNAKNSLYLQMNSLRAEDTAVYYCARHSWNDAFDVWGQGTLVTVSSGGGGSGGGGSGGGAS[about 100 residues omitted here]
